From PubChem BioAssay AID493208 (National Center for Advancing Translational Sciences (NCATS), 2011)
In all, about 44,000 compounds went through this assay and about 340 (0.77%) were called active. Another 5% or so got no clear call; they are omitted. The call rests on the fitted dose curve; in most records, active means well fitted inhibition curve with a large enough effect; inconclusive means small, poorly fitted or top-dose-only effect; inactive means flat fitted curve, though single readings scatter. This is one part of the list.

Assay: Acumen qHTS Assay for Inhibitors of the mTORC1 Signaling Pathway in MEF (Tsc2-/-, p53-/-) Cells: Sytravon; further: nearly all actives have a fitted effect of over 50% in size;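 on activity change, negative = inhibition: plate controls were DMSO for no effect and rapamycin for full effect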
Settings: phospho-rpS6 immunofluorescence/PI, 24 h; series mostly up to 38.3 µM; activity change, negative = inhibition: at the top concentration
Procedure, shortened: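 Immunofluorescence of rpS6 phosphorylation in Tsc2-/-, p53-/- MEFs after 24 h compound exposure, normalized to propidium iodide signal. Activity is expressed as % positive cells, thresholded with 7.5 nM rapamycin.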
Potency means the concentration at half of the fitted maximal effect.

Row | SMILES | activity change, negative = inhibition | Potency
1 | O=C(NCC(c1ccc(Cl)cc1)N1CCCCC1)c1ccccc1 (stereo not given) | inactive: 1.29% | 
2 | CCCOc1ccc(C(=O)N(Cc2cccs2)C2CCS(=O)(=O)C2)cc1 (stereo not given) | inactive: -3.16% | 
3 | O=C(NCc1noc2ccccc12)Nc1ccc(F)cc1F | inactive: -1.71% | 
4 | CCOC(=O)c1nc(Nc2ccccc2C)c2ccccc2n1 | inactive: 6.13% | 
5 | CCOc1cccc(C2c3[nH]c4ccccc4c3CCN2C(=O)CCc2ccccc2)c1 (stereo not given) | inactive: 0.0362% | 
6 | CCN(CC)S(=O)(=O)c1ccc2nc(NC(=O)c3ccc(Br)o3)sc2c1 | inactive: -12.9% | 
7 | O=C(Nc1nc2ccc(Cl)cc2s1)c1ccc(S(=O)(=O)N2CCCC2)cc1 | inactive: 6.66% | 
8 | CCN(CC)c1ccc(C(=O)N2CCC(c3ccncc3)CC2)cc1 | inactive: -8.36% | 
9 | CCOC(=O)C1CCCN(C(=O)c2ccc3c(c2)N(Cc2cccc(Cl)c2)C(=O)c2ccccc2S3(=O)=O)C1 (stereo not given) | inactive: -11.4% | 
10 | COc1ccc(C)cc1NC(=O)CN1C(=O)COc2ccc(S(=O)(=O)N3CCCCCC3)cc21 | inactive: -4.1% | 
11 | CCCN(C(=O)Cn1c(=O)oc2cc(Cl)ccc21)c1ccc(C(C)C)cc1 | inactive: -0.616% | 
12 | CC(C)c1ccc(NC(=O)CN2C(=O)c3cccc4cccc2c34)cc1 | inactive: 4.27% | 
13 | CCC1CCc2c(sc(NC(=O)C3c4ccccc4Oc4ccccc43)c2C#N)C1 (stereo not given) | inactive: -9.97% | 
14 | CCc1ccc(S(=O)(=O)c2cn(C)c3cc(OC)c(OC)cc3c2=O)cc1 | inactive: -11.2% | 
15 | CCOc1ccccc1CNC(=O)CSc1n[nH]c(-c2ccccc2Cl)n1 | inactive: -19.4% | 
16 | Cc1cc(C)c(S(=O)(=O)NCC(c2ccc(N(C)C)cc2)N2CCc3ccccc32)c(C)c1 (stereo not given) | inactive: 0% | 
17 | Cc1ccc(C)c(CN2C(=O)c3ccccc3S(=O)(=O)c3ccc(C(=O)N4CCN(C)CC4)cc32)c1 | inactive: -15.9% | 
18 | Cc1cc(Nc2cc(Cl)ccc2C)n2nc(Cc3ccccc3)nc2n1 | inactive: 2.42% | 
19 | O=C(CN1C(=O)COc2ccc(S(=O)(=O)N3CCCCC3)cc21)NCc1ccccc1Cl | inactive: -19.5% | 
20 | COc1cccc(CNC(=O)CCc2nc(-c3ccc(C)cc3)no2)c1 | inactive: -14.1% | 
21 | COc1ccccc1NC(=O)CSc1oc(-c2ccco2)nc1S(=O)(=O)c1ccc(Br)cc1 | inactive: -16.5% | 
22 | Cc1cc(OCCn2cc(C(=O)c3ccco3)c3ccccc32)ccc1Cl | inactive: -24.7% | 
23 | COc1ccc(-c2nnc(SCC(=O)Oc3cccc(C)c3C)o2)cc1 | inactive: 1.33% | 
24 | Cc1nn(CC(=O)NCc2cccc(F)c2)c(=O)c2c(C)n(-c3ccc(Cl)cc3)nc12 | inactive: -0.315% | 

Row | SMILES | activity change, negative = inhibition | Potency
25 | COc1ccc(-n2cc(C(=O)NCc3ccc(Cl)cc3)c3ccccc3c2=O)cc1 | inactive: 0% | 
26 | COc1ccc2nc(N(Cc3cccnc3)C(=O)c3ccco3)sc2c1 | inactive: -0.916% | 
27 | CCOC(=O)C1=C(CN2CCN(c3cc(C)ccc3C)CC2)NC(=O)NC1c1ccccc1 (stereo not given) | inactive: -18.7% | 
28 | COc1ccc(N(C(=O)c2ccccc2C)S(=O)(=O)c2ccc(C)cc2)cc1 | inactive: -0.14% | 
29 | Cc1ccc2c(c1)c1c(c(=O)n(-c3ccccc3)c(=O)n1CC(=O)NCCC1=CCCCC1)n2C | inactive: -14.7% | 
30 | CC1CN(C(=O)CCC(=O)NCc2cccs2)c2cc(Cl)ccc2O1 (stereo not given) | inactive: -3.38% | 
31 | CCOC(=O)c1cc(-c2ccc(C)cc2)n(CC(=O)Nc2ccc(OC)c(Cl)c2)c1C | inactive: -21.7% | 
32 | Cc1ccc(CCNC(=O)c2cc3sccc3n2Cc2ccc(Cl)cc2)cc1 | inactive: -6.63% | 
33 | COc1cccc(CN2C(=O)C3(SCC(=O)N3c3cc(C)cc(C)c3)c3ccccc32)c1 (stereo not given) | inactive: -6.64% | 
34 | O=C(c1ccc2c(c1)OCCO2)N(Cc1cccnc1)c1nc2ccc(Cl)cc2s1 | inactive: 3.79% | 
35 | CCc1ccc2oc(C(=O)NCCc3ccc(OC)c(OC)c3)cc(=O)c2c1 | inactive: -9.88% | 
36 | COc1ccccc1N1CCN(S(=O)(=O)c2cc(-c3cc(C)no3)ccc2C)CC1 | inactive: 0.724% | 
37 | CCC(C)NC(=O)c1ccccc1NC(=O)C1CCN(S(=O)(=O)Cc2ccccc2)CC1 (stereo not given) | inactive: 3.8% | 
38 | Cc1ccc(-c2nnn(CC(=O)N(CC(=O)NCCC(C)C)c3ccc(F)cc3)n2)cc1 | inactive: -3.29% | 
39 | CCCCCOC(=O)c1ccc(Nc2nc(C(=O)OCC)nc3ccccc23)cc1 | inactive: 9.18% | 
40 | Cc1ccc(C(C)C)c(OCC(=O)Nc2nc3c(s2)CCCC3)c1 | inactive: -16.1% | 
41 | COc1ccc(S(=O)(=O)Nc2cc(-c3cn4cccc(C)c4n3)ccc2C)cc1C | inactive: -22.1% | 
42 | O=C(NCCc1ccc(F)cc1)C(=O)NCC(c1ccc2c(c1)OCO2)N1CCOCC1 (stereo not given) | inactive: -4% | 
43 | Cc1ccc2nc(-c3c[nH]c4ccccc34)c(Nc3ccccc3)n2c1 | inactive: -7.32% | 
44 | Cc1coc2c1c(C)cc1oc(=O)c(CC(=O)NCc3ccc(Cl)cc3)c(C)c12 | inactive: -0.289% | 
45 | CCCN1CCN(CC2=C(C(=O)OCC)C(c3ccc(OC(C)C)cc3)NC(=O)N2)CC1 (stereo not given) | inactive: -1.03% | 
46 | CSc1nc2c(sc3ccccc32)c(=O)n1Cc1ccc(C)cc1 | inactive: -0.799% | 
47 | CCn1c(=O)c(=O)n(CC)c2cc(N3CCCCC3)c(NC(=O)c3ccccc3OC)cc21 | inactive: -3.45% | 
48 | COc1ccccc1-c1c(C)nn2c(N3CCN(c4ccccc4)CC3)cc(C)nc12 | inactive: 3.12% | 

Row | SMILES | activity change, negative = inhibition | Potency
49 | CCOc1ccc(-c2nc(CSCC(=O)NCCc3ccc(OCC)c(OCC)c3)c(C)o2)cc1 | inactive: 0.0781% | 
50 | COc1ccc(OC)c(CNC(=O)CN2N=C(c3ccc(Cl)cc3)CCC2=O)c1 | inactive: 1.98% | 
51 | CCC(C)NC(=O)CSc1c2c(nc3cc(Cl)ccc13)CCCC2 (stereo not given) | inactive: -3.11% | 
52 | O=C(Nc1ccc2nc(SCC(=O)N3CCOCC3)sc2c1)c1ccc(Br)cc1 | inactive: -6.89% | 
53 | COc1ccc(C(=O)Nc2cc(-c3nc4ccccc4s3)ccc2OC)cc1 |  | active: 16.5 µM
54 | C=Cc1ccc(Cn2c(C(=O)O)c(CNC3CCCCC3)c3ccc(OC)cc32)cc1 | inactive: -12% | 
55 | COc1cccc(CNC(=O)C(=O)NCC(c2ccc3c(c2)OCO3)N2CCOCC2)c1 (stereo not given) | inactive: 0.0602% | 
56 | CCOC(=O)c1ccccc1NC(=O)Nc1cc2c(cc1N1CCCC1)n(C)c(=O)n2C | inactive: -0.519% | 
57 | CCOc1ccc(NC(=O)CSc2nnc(CNC(=O)C34CC5CC(CC(C5)C3)C4)n2CC)cc1 | inactive: 3.73% | 
58 | COc1ccc(-n2nc3cc(C)c(NC(=O)Cc4ccc(Cl)cc4)cc3n2)cc1 | inactive: 1.31% | 
59 | Cc1cc2oc(C(=O)Nc3cccc(-c4nc5ccccc5o4)c3)c(C)c2cc1C | inactive: 0% | 
60 | CCCN1CN=C(NS(=O)(=O)c2ccc(NC(C)=O)cc2)NC1 | inactive: -1.81% | 
61 | O=C(NCCc1ccccc1)c1ccc(Cn2c(SCc3ccccc3F)nc3cccnc32)cc1 | inactive: -13.6% | 
62 | O=C(CSc1nc(=O)n(Cc2ccncc2)c2c1CCC2)Nc1ccc(F)cc1F | inactive: 0.618% | 
63 | CCc1ccc(NC(=O)CSc2nc(-c3cccc(OC)c3)nc3c2Cc2c(CO)cnc(C)c2O3)cc1 | inactive: -2.34% | 
64 | CC(Oc1ccccc1)C(=O)Nc1ccccc1C(=O)OCc1cc(=O)n2nc(C(C)C)sc2n1 (stereo not given) | inactive: 0% | 
65 | CCCC12CN3CC(CCC)(CN(C1)C3c1ccc(OC(C)C)cc1)C2=O (stereo not given) | inactive: -23.7% | 
66 | COc1cccc(Cn2c(C)c(CNC3CCCCC3)c(C(=O)O)c2C)c1 | inactive: -1.28% | 
67 | Cc1c(C(=O)N(C)C)sc2c1c(=O)n(-c1ccc(Cl)c(Cl)c1)c(=O)n2CC(=O)N1CCCCC1C (stereo not given) | inactive: -1.86% | 
68 | CCCc1cc(=O)[nH]c(Nc2cc(C)cc(C)c2)n1 | inactive: 3.24% | 
69 | COc1cc(C(=O)N(Cc2ccc(N(C)C)cc2)CC2CCCO2)cc(OC)c1OC (stereo not given) | inactive: 3.24% | 
70 | COc1ccc(-c2noc(-c3ccc(N4CCN(c5ccccc5OC)CC4)c([N+](=O)[O-])c3)n2)cc1 | inactive: 3.43% | 
71 | COc1ccc(N2CC(NC(=O)C3CCCCC3)CC2=O)cc1OC (stereo not given) | inactive: 0.166% | 
72 | O=C(c1cnc2c(c1)COc1ccc(Cl)cc1-2)c1ccccc1O | inactive: -8.4% | 

Row | SMILES | activity change, negative = inhibition | Potency
73 | COc1ccc(N2CCN(C(=O)CN3C(=O)COc4ccc(S(=O)(=O)N5CCC(C)CC5)cc43)CC2)cc1 | inactive: -25.2% | 
74 | CCOc1ccc(NC(=O)CCCOc2cc(=O)n(C)c3ccccc23)cc1 | inactive: -10.8% | 
75 | Cc1ccc2nc(-c3ccc(C)o3)c(Nc3ccc4c(c3)OCCO4)n2c1 | inactive: -3.66% | 
76 | COc1ccc(NC(=O)c2oc3ccccc3c2NC(=O)Cc2coc3ccc(C)cc23)cc1 | inactive: 4.81% | 
77 | CCCCN(CC)C(=O)c1nn(-c2ccc(OC)cc2)c(=O)c2c1c1ccccc1n2C | inactive: -7.53% | 
78 | COc1ccc(OC)c(CNC(=O)c2ccc3c(c2)c(C)c(C)n3C)c1 | inactive: 2.71% | 
79 | Cc1ccc(C)c(N2CCN(C(=O)c3cc4c(=O)oc5ccccc5c4s3)CC2)c1 | inactive: 1.25% | 
80 | O=C(Cn1c(=O)n(-c2ccccc2)c(=O)c2ccc(C(=O)NCc3ccc4c(c3)OCO4)cc21)Nc1ccc(Br)cc1 | inactive: -19.6% | 
81 | CCOc1cc(CNC(=O)c2ccc3nc(C(C)C)oc3c2)cc(OCC)c1OCC | inactive: 5.1% | 
82 | O=C(CSc1nc2ncccc2o1)Nc1cccc(C(F)(F)F)c1 | inactive: -16.6% | 
83 | COc1ccc(N2CCN(S(=O)(=O)CCNC(=O)Cc3ccc(OC)c(OC)c3)CC2)cc1 | inactive: -4.02% | 
84 | Cc1nc(SCC(=O)Nc2nsc(-c3ccc(C(C)(C)C)cc3)n2)c2c3c(sc2n1)CCCC3 | inactive: 0.919% | 
85 | COC(=O)c1ccc(NC(=O)CCc2c(C)nc3c(c(C)nn3C(C)(C)C)c2C)cc1 | inactive: -7.51% | 
86 | CCN(C(=O)CSc1nc(-c2ccccc2)no1)c1ccccc1 | inactive: 5.55% | 
87 | Cc1ccc2occ(-c3cc(-c4ccc(F)cc4)nc4c3COc3ccc(F)cc3-4)c(=O)c2c1 | inactive: 0% | 
88 | Cc1ccccc1CSc1nc(-c2cccc(F)c2)nc2c1Cc1c(CO)cnc(C)c1O2 | inactive: -4.41% | 
89 | CN(C)C(=O)c1ccc2c(c1)N(CC(=O)NCc1ccccc1Cl)C(=O)C1CCCCN21 (stereo not given) | inactive: -1.14% | 
90 | COc1ccc(OC)c(CNC(=O)c2nn(C)c3c2CS(=O)(=O)c2ccccc2-3)c1 | inactive: -0.891% | 
91 | CC(=O)Nc1ccc(Nc2ncnc3c2cnn3C)cc1 | inactive: 1.7% | 
92 | CCCN(CCC)C(=O)Cn1c(=O)n(CCCCCC(=O)NCc2ccc3c(c2)OCO3)c(=O)c2sccc21 | inactive: 0.652% | 
93 | CCOc1ccccc1CNC(=O)c1oc2c(c1C)-c1[nH]ncc1CC2 | inactive: -1.46% | 
94 | CC1CCN(c2ncnc3c2c(-c2ccccc2)cn3-c2ccc(Br)cc2)CC1 | inactive: 7.89% | 
95 | CCOC(=O)c1c(NC(=O)c2cc(OC)c(OC)c(OC)c2)sc2c1CCCC2 | inactive: 3.65% | 
